# Values marked as one replicate rest on one cluster of the flow cell; about a third of the high ones do not repeat.
# Tested on: ATP
# Assay: switch fluorescence ratio, 500 uM ATP over buffer (Cy3 cluster intensity, sum of 5 cycles each) (fold (ratio)); higher = stronger signal-on switching upon ATP binding; sequences stand for … in TCGTCGGCAGCGTCAGATGTGTATAAGAGACAGTTTTTTTTTTTTTTTTTTTTTTTTT…TC
# Conditions: aptamer strand: ATP DNA aptamer (quencher-CACCTGGGGGAGTATTGCGGAGGAAGG + anchor), 100 nM annealed; ATP concentration: 500 uM; one replicate
# Outline: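 Exposure to 500 uM ATP lasted 15 min at 22 °C before imaging, and a selection-buffer image was taken beforehand, for Cy3-labelled switching-strand clusters on a modified Illumina MiSeq flow-cell annealed to 100 nM quencher-labelled ATP aptamer. Five buffer/ATP cycles were run with NaOH stripping and re-annealing between them. The fluorescence ratio per cluster is summed target-cycle over summed buffer-cycle Cy3 intensity, averaged per switch-domain sequence. Clusters outside 100-1000 RFU were excluded.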
sequence,measurement,value
GTACATATTT,switch fluorescence ratio,1.03
TGACTCGCCA,switch fluorescence ratio,1.18
GGGTTGGTCT,switch fluorescence ratio,1.02
CCATATTAAC,switch fluorescence ratio,1.02
TGCCTTAGCA,switch fluorescence ratio,1.02
AAGCATCAGA,switch fluorescence ratio,0.98
AAGTTCAATC,switch fluorescence ratio,1.02
TAAAGCCGTT,switch fluorescence ratio,1.07
AAACCCCGAG,switch fluorescence ratio,1.42
TGCGATTTGA,switch fluorescence ratio,1.01
TGACTAGTGT,switch fluorescence ratio,1.02
TTCCTTGATG,switch fluorescence ratio,1.04
AAACCGATAA,switch fluorescence ratio,1.1
AGACTTAGG,switch fluorescence ratio,1.02
TTAACGGCGG,switch fluorescence ratio,0.966
AATATATGAG,switch fluorescence ratio,0.977
ACAGAAGGAT,switch fluorescence ratio,1.04
GTTTTCTGCG,switch fluorescence ratio,0.944
CAGGCCCCCG,switch fluorescence ratio,1.05
CGTGCGGTGT,switch fluorescence ratio,0.971
TTGCCCTAGG,switch fluorescence ratio,1.12
ACCGGTATAC,switch fluorescence ratio,2.61
ACGAGGTAGC,switch fluorescence ratio,0.986
GGAGTTAG,switch fluorescence ratio,0.999
GCAGTGCCGA,switch fluorescence ratio,1.02
ACCATCCAA,switch fluorescence ratio,1.01
AGTGAATGAA,switch fluorescence ratio,0.965
GAAGGCA,switch fluorescence ratio,0.983
GCAAGTGAAT,switch fluorescence ratio,1.03
TGGCCCGTTG,switch fluorescence ratio,1.04
GGGCTTTACA,switch fluorescence ratio,0.959
AAAGATTTGG,switch fluorescence ratio,0.96
AGTCTACCGC,switch fluorescence ratio,1.02
GTAGTATCAT,switch fluorescence ratio,0.995
CATCAGCTAG,switch fluorescence ratio,1.28
GAGTTCACAA,switch fluorescence ratio,1.01
GCAGCGCCTT,switch fluorescence ratio,0.993
CTAAACGGAC,switch fluorescence ratio,1.25
ATCTTGGTTC,switch fluorescence ratio,0.976
CTCGTGGTGA,switch fluorescence ratio,1.05
GGTGGGGGAC,switch fluorescence ratio,0.989
TCATTACTTG,switch fluorescence ratio,1.04
TCTGGGACTC,switch fluorescence ratio,1.01
CGGATAAGGA,switch fluorescence ratio,1
ATACGGGTC,switch fluorescence ratio,0.977
TCGCTGGGT,switch fluorescence ratio,0.972
GTATGGAGAT,switch fluorescence ratio,1.01
CCAGATTCCG,switch fluorescence ratio,1.07
ATGTGAACC,switch fluorescence ratio,1.02
GAGTGTGGTT,switch fluorescence ratio,1
ACCGGCTTTT,switch fluorescence ratio,1.08
AATGTTGCCA,switch fluorescence ratio,0.966
GCTTCGTC,switch fluorescence ratio,1.02
GCTAAACTCT,switch fluorescence ratio,1.03
TATTCGTAAC,switch fluorescence ratio,1.06
GATACTCGGA,switch fluorescence ratio,0.981
TGAGTACCTG,switch fluorescence ratio,0.976
CCGAGAGTTT,switch fluorescence ratio,1.1
TAATTGCAT,switch fluorescence ratio,1.04
TGGAGCAGGT,switch fluorescence ratio,1.1
AGAAACCAAA,switch fluorescence ratio,1.04
CACTGAGACA,switch fluorescence ratio,1.05
GTCCCAAGA,switch fluorescence ratio,0.964
CGCCGTAGTC,switch fluorescence ratio,0.997
TGCATTTATA,switch fluorescence ratio,0.998
AATAGTTTAA,switch fluorescence ratio,1
AAACCGTCGT,switch fluorescence ratio,1.04
TAAGGTGTTA,switch fluorescence ratio,1.12
TGTGTATTGA,switch fluorescence ratio,1.01
ACCAACTGAT,switch fluorescence ratio,1.05
AGGAAGAAAA,switch fluorescence ratio,1.06
AACGGACACG,switch fluorescence ratio,1.04
GCGGTAGAAT,switch fluorescence ratio,0.971
TAAAGTGAGA,switch fluorescence ratio,1
CGCATCATGA,switch fluorescence ratio,0.993
GCCTTATGT,switch fluorescence ratio,0.986
GTTGATCGCG,switch fluorescence ratio,0.99
AAGAACACCG,switch fluorescence ratio,1.04
AGATCTGTAT,switch fluorescence ratio,0.972
TGTAACTAGC,switch fluorescence ratio,1.08
TAAATCCAAA,switch fluorescence ratio,1
GAGGCAACCG,switch fluorescence ratio,1.09
GCGTTGCGCG,switch fluorescence ratio,1
CAGGGGAGAT,switch fluorescence ratio,1.03
TATCACAGTG,switch fluorescence ratio,1.08
GGCGCCAGAA,switch fluorescence ratio,0.991
AGTCTTGGGA,switch fluorescence ratio,1.03
TAACTCAATT,switch fluorescence ratio,1
TGGGACTAG,switch fluorescence ratio,0.971
GAAATGTT,switch fluorescence ratio,1.02
GCTCGGCAGT,switch fluorescence ratio,2.15
TTTCCGTGT,switch fluorescence ratio,1
GTAGGTAAAC,switch fluorescence ratio,1.01
CGGCATGAAT,switch fluorescence ratio,0.941
ACGGTACGTA,switch fluorescence ratio,1.03
TGCGGGTTAC,switch fluorescence ratio,1.05
TATGTAAGAT,switch fluorescence ratio,0.978
CTGATCGAT,switch fluorescence ratio,1.98
GCGATGTAAG,switch fluorescence ratio,0.999
AGTCGAGATG,switch fluorescence ratio,0.971
AAATGGTCGT,switch fluorescence ratio,1.07
CCTTTTGTTC,switch fluorescence ratio,1.35
CGGCAAAGGG,switch fluorescence ratio,0.972
GATTTAACAC,switch fluorescence ratio,1.03
CACGATAGCC,switch fluorescence ratio,1.21
CGTCGGCCCA,switch fluorescence ratio,0.989
CTAGCTTGAT,switch fluorescence ratio,1
GTTTTAACCG,switch fluorescence ratio,1.01
AAATCAAAAT,switch fluorescence ratio,1.45
CGGGGTTTTA,switch fluorescence ratio,0.967
ATCGAGGTAT,switch fluorescence ratio,1.03
CAGACTTCAG,switch fluorescence ratio,1.02
TGACCAATCC,switch fluorescence ratio,1.51
ATCAAGGAAG,switch fluorescence ratio,0.977
TGCCCTTTGT,switch fluorescence ratio,0.999
GTTAATTT,switch fluorescence ratio,0.994
GAGGTGTGCG,switch fluorescence ratio,0.997
GGTCGCGCGT,switch fluorescence ratio,1.01
ATTACGCTT,switch fluorescence ratio,1.08
TAGATGTGGC,switch fluorescence ratio,1.01
ATCCCGCACT,switch fluorescence ratio,2.16
GCTAACACCG,switch fluorescence ratio,1.09
GGATCAGTGT,switch fluorescence ratio,0.969
TTCCACTGGT,switch fluorescence ratio,1.04
CCTGCACACG,switch fluorescence ratio,1.48
CGCTCCGTAT,switch fluorescence ratio,1.51
TGTTATGACA,switch fluorescence ratio,1.01
GTAATTGTGG,switch fluorescence ratio,0.945
AAAAACTTAG,switch fluorescence ratio,1.19
ATAAAACTTC,switch fluorescence ratio,1.06
AAGTGGAGAC,switch fluorescence ratio,0.994
GCAGTCCAAT,switch fluorescence ratio,0.99
GGTGAATTAG,switch fluorescence ratio,0.969
CGAGATTAAG,switch fluorescence ratio,1.02
AAGGTAATAT,switch fluorescence ratio,1
TTAAGCTCCT,switch fluorescence ratio,0.997
CGGCATGCTT,switch fluorescence ratio,1.05
TTTTGGGC,switch fluorescence ratio,0.98
TTGCTTTTAG,switch fluorescence ratio,0.953
CAGCTCTTGC,switch fluorescence ratio,0.97
TCGTATTATG,switch fluorescence ratio,1.03
GGGGGATACA,switch fluorescence ratio,1.1
AATGGTCTCT,switch fluorescence ratio,1
GATATCGTGT,switch fluorescence ratio,0.995
GATAGGTAGC,switch fluorescence ratio,1.02
CATAGACTGG,switch fluorescence ratio,0.986
TATCGTTCCT,switch fluorescence ratio,1.16
AAGATGTGCG,switch fluorescence ratio,1.02
TACACGTTCG,switch fluorescence ratio,1.1
TTCAGTGATA,switch fluorescence ratio,1.03
TCAAAAGGCA,switch fluorescence ratio,0.994
CCATAGTCGT,switch fluorescence ratio,1.03
CGCGTCCGAT,switch fluorescence ratio,1.02
GATGGAGGAA,switch fluorescence ratio,0.974
GCTCTTTCAC,switch fluorescence ratio,1.06
CGTCAAGGA,switch fluorescence ratio,0.996
CGGGTACCAA,switch fluorescence ratio,1.06
GAAAACGTCG,switch fluorescence ratio,1.01
